Sequences with one replicate were seen in a single cluster, so their values are uncertain.
System: ATP
Test: switch fluorescence ratio, 500 uM ATP over buffer (Cy3 cluster intensity, sum of 5 cycles each) (fold (ratio)); higher = stronger signal-on switching upon ATP binding; sequences stand for … in TCGTCGGCAGCGTCAGATGTGTATAAGAGACAGTTTTTTTTTTTTTTTTTTTTTTTTT…TC
Details: aptamer strand: ATP DNA aptamer (quencher-CACCTGGGGGAGTATTGCGGAGGAAGG + anchor), 100 nM annealed; ATP concentration: 500 uM; one replicate
Procedure, shortened: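 The quencher-labelled ATP aptamer, at 100 nM, was annealed to Cy3-labelled switching-strand clusters on a modified Illumina MiSeq flow-cell. The clusters were imaged in selection buffer, then after 15 min with 500 uM ATP at 22 °C, and this buffer/ATP cycle ran five times with NaOH stripping and re-annealing between runs. Per-cluster fluorescence ratios, summed target-cycle over summed buffer-cycle Cy3 intensity, were averaged per switch-domain sequence. Clusters outside 100-1000 RFU were excluded.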
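Also: ATP exposure 15 min at 22 °C before imaging.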

| Sequence | switch fluorescence ratio |
| --- | --- |
| TCATTTGAAT | 1.02 |
| ATGAAGGCAG | 1.01 |
| CATGGTGTTC | 0.988 |
| CCCTATGGGG | 0.972 |
| GCATGTGCAT | 1.01 |
| CACTTCAAAA | 1 |
| GAGGACCTGA | 1.07 |
| AGGAAAGATG | 0.951 |
| GGCAATTGGG | 1.07 |
| TCTCCCATTG | 1.3 |
| CATAAGAGCA | 1.04 |
| GCGTGCCGGT | 0.989 |
| TTAGCGGGCC | 0.992 |
| ACTGTATCTA | 1.19 |
| GTGCGCGGGC | 1.03 |
| AGACCCGTCG | 0.992 |
| CAGCTCTAAA | 1.05 |
| TGTTTGGC | 0.889 |
| GCTGGGCAGT | 0.999 |
| TCGGACGCGA | 2.59 |
| TTTTATTTCT | 1.01 |
| CGGAGGGTTA | 1 |
| ATGGGTCCCG | 0.999 |
| CGATTGGATG | 1.02 |
| TGCCCCCCTT | 1.08 |

| Sequence | switch fluorescence ratio |
| --- | --- |
| CTTTATTATA | 1.03 |
| AGAAAACGAG | 0.995 |
| GGAAGTATGA | 0.972 |
| GCGATAACAA | 1.02 |
| CATTAGATCT | 1.05 |
| TTAGTTGGC | 1.01 |
| GCTAAGTCTA | 1 |
| TTGCAGTGGT | 0.931 |
| GTTCGTTTTT | 0.969 |
| CTTGAGTT | 1 |
| CATTTGATTT | 0.995 |
| TTACGTTAGA | 1.07 |
| GCGTAGGAGC | 1.05 |
| GTTGACTCCT | 0.987 |
| TTTGATTTCT | 0.963 |
| ACCCCCAGGC | 1.7 |
| ATCGCGGGTG | 1 |
| AGTATCTTCT | 0.967 |
| ACGTGTCCAG | 0.98 |
| CCTCGTAACT | 2.43 |
| AGATTAATGC | 1.02 |
| TCAGCACTGG | 1.05 |
| TACTAAAGAG | 0.932 |
| GTAGAGCTGA | 0.981 |
| ACCCATTAGC | 1.06 |

| Sequence | switch fluorescence ratio |
| --- | --- |
| ATGCGGCGCA | 1.02 |
| CCCGCCCGGT | 1.15 |
| TTAACCCCTC | 1.11 |
| TCGGCGATGC | 2.06 |
| GTAAAAGTGT | 0.966 |
| TTCGCCGAGT | 1.01 |
| CCACGATACA | 1.94 |
| CCGACTCCAG | 1.16 |
| TAGAAGCACT | 1.05 |
| GTTACTGGGA | 1.04 |
| CGCGGCGCCA | 1.03 |
| ATCAAGTTCC | 1.06 |
| TGGATTACGA | 1.01 |
| ATTTGGTACA | 0.989 |
| ATTGTGAGTC | 0.971 |
| CGTTTTATAT | 1.01 |
| CAAATCAGTT | 0.945 |
| ATCGGTAGAC | 1.01 |
| GTTATGTGCG | 1.01 |
| TTTGGTAGGC | 0.948 |
| ATCCTGAGGG | 1.01 |
| CCGACTTCTA | 1.21 |
| GACCCTCTAG | 1 |
| CGCGGATGGC | 1.07 |
| CCCCTCCAAA | 1.56 |

| Sequence | switch fluorescence ratio |
| --- | --- |
| TAGCATGGAG | 0.994 |
| GTTGGGTGAC | 1.05 |
| TGTTTGAGGA | 0.983 |
| GCCTTTTAGG | 0.967 |
| GGCGCAGCCG | 0.951 |
| ACTGAGTACT | 1.05 |
| GGCTAGTTTG | 0.998 |
| ACAGTTGAGG | 0.998 |
| GATCAATCGT | 1.02 |
| TTTCAAAACT | 1.03 |
| ACTGTGTGCC | 0.985 |
| ATTTCAGACC | 1.07 |
| GACCAAAGAT | 1.07 |
| CAATAAAAGG | 1 |
| TGTTTCTGGC | 1.03 |
| TTGCGTAGGA | 1.02 |
| CTGCTCAGAA | 0.955 |
| TTTGAGCTAG | 0.95 |
| AGGATGTGGG | 0.986 |
| CGCGCCCCGG | 1.75 |
| CTAAGCGATG | 1.01 |
| TAGACGCACA | 1.98 |
| AATTCAAAGA | 0.974 |
| TAGTCGTAGG | 1.04 |
| GCCGTAGAGG | 0.96 |

| Sequence | switch fluorescence ratio |
| --- | --- |
| CCCGGGGGGC | 3.05 |
| AAGTCAATTA | 1.02 |
| AACAAGATTA | 0.991 |
| CTTGGTCTTG | 0.99 |
| ACTAGTTTGT | 1.02 |
| GTATCAGGTG | 2.67 |
| CCAGAAATTT | 0.992 |
| AGATCTAAC | 0.965 |
| ATCAGTGCCA | 1.02 |
| GTGGCTTAAT | 0.981 |
| GAGTTGTTGC | 0.977 |
| CATAATATAG | 1 |
| AATTAGGTGT | 1.01 |
| TCCTTCACGC | 2.08 |
| AAGAACGCTC | 1.02 |
| AGTGTAGCTC | 1.05 |
| CCTCTCGGG | 1.2 |
| TATGCTTGCA | 0.988 |
| CTCGCCGTTG | 0.942 |
| AATAGTCATA | 1 |
| ACTGTTGTCT | 0.994 |
| ATAGGGACG | 1.09 |
| CTTGAGTAGT | 1.04 |
| GGCTTATCTT | 0.972 |
| GGTTAAATGA | 1.04 |

| Sequence | switch fluorescence ratio |
| --- | --- |
| GCTGCCGACT | 1.04 |
| ATGGCGGAC | 0.985 |
| CAGGTATTCG | 1.05 |
| AGTCTGTTAG | 1.01 |
| ATGTTAGAAG | 1 |
| GCCCTCGCGC | 1.06 |
| GAGCCAAGAT | 1.08 |
| CAAGGAACAT | 0.988 |
| GGGAACGATG | 1.02 |
| GACTTAAGGG | 1 |
| ACAACGTTGT | 0.956 |
| CATCGGGGAG | 1.07 |
| ATATCGGAAT | 0.993 |
| AATCGGCTGT | 1.01 |
| ATTATAGCCG | 1.06 |
| CGTTGCGTCC | 1.02 |
| CGGCGAAAT | 0.991 |
| GCTTGCTCTA | 1.02 |
| CTCGGTCAGT | 1.01 |
| AATGTGGTTC | 0.986 |
| ATCTGGCTGC | 1.06 |
| AACCGCTTAT | 1.6 |
| GATAACGCGG | 1.11 |
| CCGTTAGACG | 1.09 |
| AATTAGGGG | 1.02 |

| Sequence | switch fluorescence ratio |
| --- | --- |
| GAAAGGTTCT | 1 |
| TTGGATCGAT | 0.946 |
| TGGGATGCCC | 0.992 |
| CGCCTACAGG | 1.27 |
| ACGGGTCAAG | 0.963 |
| GCGGGACCGT | 1 |
| TGGGCGGTT | 1.1 |
| GTGTTTGGTA | 0.982 |
| ATGGCTGT | 1.03 |
| GGGGAGCAGG | 1.09 |
| ATAGCCTGGG | 1.01 |
| CCGTAAAGCC | 1.47 |
| TCGAGGTTGG | 0.973 |
| CTTAGGG | 0.992 |
| CGTAGTAGAG | 0.929 |
| CAATAGAGCG | 1.01 |
| CGAGAAACGT | 1 |
| ATTCCTGGCT | 1.05 |
| AGCGCCCGGG | 1.07 |
| GAGCCGTTGA | 0.981 |
| TAGCTTGGAA | 0.963 |
| CGCTGGCATT | 1.12 |
| ATAAACCTAG | 1.06 |
| GTTAGTATCG | 0.996 |
| AAAGGGTCCA | 0.988 |

| Sequence | switch fluorescence ratio |
| --- | --- |
| ACCCGACGTT | 1.29 |
| CTGCATGGA | 1.2 |
| TACTGGATAG | 0.995 |
| ATATAAGCTC | 1.01 |
| ACCCCCACAT | 1.2 |
| ATCAGGTCTC | 0.976 |
| AGAAATCGAT | 0.978 |
| AGCCGGGACC | 0.992 |
| GTGGCCTACA | 0.999 |
| GATTATAGGA | 0.966 |
| ACGCTTTGAA | 1.03 |
| ATAAGTAGAC | 1 |
| GCTCCACGTA | 1.25 |
| ACGCCGTAGG | 0.966 |
| GTAAAAAATC | 0.958 |
| AGTAATATCC | 1.07 |
| TAAATTCTGT | 0.946 |
| TCCCCGGATT | 1.19 |
| TAATTCGAAC | 0.999 |
| CAGACTTGAT | 1.04 |
| GGCTGAGCGC | 0.976 |
| GAGCGCTCTG | 1.02 |
| TTCATTTTAT | 1.03 |
| TAGGCATTT | 0.999 |
| GTACATTCGG | 0.998 |
